From the antibiotic and cytotoxicity screens of Wong et al. (2023)
The other results are listed elsewhere or left out.

Each compound was assayed on HepG2 (assay: cytotoxicity call (relative viability < 0.9)). Conditions: 10 µM.
`COc1ccc(S(=O)(=O)N(C)C[C@@H]2OCCCC[C@@H](C)Oc3ccc(NC(=O)c4ccccc4)cc3C(=O)N([C@@H](C)CO)C[C@@H]2C)cc1` was tested, and the cytotoxicity call was “inactive”.
In the case of `C[C@H](CO)N1C[C@H](C)[C@H](CN(C)Cc2ccc(C(F)(F)F)cc2)Oc2ccc(NC(=O)Cc3cn(C)c4ccccc34)cc2CC1=O`, the cytotoxicity call is reported as “inactive”.
In the case of `CC(C)NC(=O)Nc1ccc2c(c1)C(=O)N([C@H](C)CO)C[C@H](C)[C@H](CN(C)CC1CCCCC1)OCCCC[C@H](C)O2`, the cytotoxicity call is reported as “inactive”.
In the case of `C[C@@H]1CN([C@@H](C)CO)C(=O)c2cccc(NC(=O)NC3CCCCC3)c2O[C@@H]1CN(C)C(=O)Nc1cccc2ccccc12`, the cytotoxicity call is reported as “inactive”.
In the case of `CCCNCC(O)COc1ccccc1C(=O)CCc1ccccc1.Cl` (stereo not drawn), the cytotoxicity call is reported as “active”.
In the case of `COc1cccc(NC(=O)N[C@@H]2C=C[C@@H](CC(=O)N3CCOCC3)O[C@H]2CO)c1`, the cytotoxicity call is reported as “inactive”.
For `CCS(=O)(=O)Nc1ccc2c(c1)C(=O)N(C)C[C@@H](OC)[C@@H](C)CN(Cc1ccccn1)[C@H](C)CO2`, the cytotoxicity call was “inactive”.
`Cc1noc(C)c1S(=O)(=O)Nc1ccc2c(c1)C(=O)N([C@@H](C)CO)C[C@@H](C)[C@H](CN(C)S(C)(=O)=O)O2` was tested, and the cytotoxicity call was “inactive”.
`COc1ccc(CN(C)C[C@@H]2OCCCC[C@H](C)Oc3ccc(NS(=O)(=O)c4ccc(Cl)cc4)cc3C(=O)N([C@H](C)CO)C[C@@H]2C)cc1` was tested, and the cytotoxicity call was “active”.
With `O=C1O[C@@H](c2ccccc2)[C@@H](c2ccccc2)N2[C@@H](c3ccccc3OCCO)[C@]3(C(=O)Nc4ccc(C#CC5(O)CCCCCC5)cc43)[C@@H](C(=O)N3CCCCCCC3)[C@H]12` the cytotoxicity call was “inactive”.
`C[C@@H]1CN([C@H](C)CO)S(=O)(=O)c2ccc(C#CCN(C)C)cc2O[C@H]1CN(C)Cc1ccccc1F` was tested, and the cytotoxicity call was “inactive”.
For `C[C@@H]1CCCCO[C@H](CN(C)Cc2ccc(C(=O)O)cc2)[C@@H](C)CN([C@@H](C)CO)C(=O)c2cc(NC(=O)Nc3ccc4c(c3)OCO4)ccc2O1`, the cytotoxicity call was “inactive”.
With `C[C@@H]1CN([C@H](C)CO)C(=O)Cc2cc(NC(=O)Nc3ccc(C(F)(F)F)cc3)ccc2O[C@@H]1CN(C)C(=O)Nc1cccc2ccccc12` the cytotoxicity call was “inactive”.
With `CO[C@H]1CN(C)C(=O)c2ccc(NC(=O)Nc3ccc(Cl)cc3)cc2OC[C@@H](C)N(C(=O)Nc2c(C)noc2C)C[C@H]1C` the cytotoxicity call was “inactive”.
`C[C@H]1CCCCO[C@H](CN(C)CC2CCCCC2)[C@@H](C)CN([C@@H](C)CO)C(=O)c2cc(NC(=O)c3ccccc3)ccc2O1` was tested, and the cytotoxicity call was “inactive”.
In the case of `C[C@@H]1CCCCO[C@@H](CN(C)C(=O)CCCN(C)C)[C@@H](C)CN([C@@H](C)CO)C(=O)c2cc(NC(=O)Nc3ccc(C(F)(F)F)cc3)ccc2O1`, the cytotoxicity call is reported as “inactive”.
For `C[C@H](CO)N1C[C@H](C)[C@@H](CN(C)S(=O)(=O)c2ccc(Cl)cc2)OCc2cnnn2CCCC1=O`, the cytotoxicity call was “inactive”.
For `CN1C(=O)c2cc(NC(=O)C3CCC3)ccc2OC[C@H]2O[C@@H](CC(=O)NCCc3ccncc3)CC[C@@H]21`, the cytotoxicity call was “inactive”.
In the case of `CC(C)C#Cc1cnc2c(c1)C(=O)N([C@@H](C)CO)C[C@@H](C)[C@@H](CN(C)S(=O)(=O)c1cn(C)cn1)O2`, the cytotoxicity call is reported as “inactive”.
In the case of `C[C@H](CO)N1C[C@H](C)[C@@H](CN(C)C(=O)Nc2cccc(Cl)c2Cl)OCc2ccccc2-c2c(n(C)c3ccccc23)C1=O`, the cytotoxicity call is reported as “active”.
For `C[C@H]1CCCCO[C@@H](CN(C)Cc2ccc(C(=O)O)cc2)[C@@H](C)CN([C@@H](C)CO)C(=O)c2cc(NC(=O)Nc3ccccc3)ccc2O1`, the cytotoxicity call was “inactive”.
In the case of `Cc1noc(C)c1S(=O)(=O)Nc1cccc2c1O[C@@H](CN(C)C(=O)Nc1ccccc1)[C@@H](C)CN([C@H](C)CO)C2=O`, the cytotoxicity call is reported as “inactive”.
`CC(C)NC(=O)Nc1cccc2c1O[C@@H](CN(C)Cc1ccc(-c3ccccc3)cc1)[C@@H](C)CN([C@H](C)CO)C2=O` was tested, and the cytotoxicity call was “inactive”.
`COc1ccc(NC(=O)N(C)C[C@@H]2Oc3ncc(C#CC(C)C)cc3C(=O)N([C@@H](C)CO)C[C@@H]2C)cc1` was tested, and the cytotoxicity call was “inactive”.
`C[C@@H]1CN([C@H](C)CO)S(=O)(=O)c2ccc(C#CCN(C)C)cc2O[C@@H]1CN(C)Cc1ccncc1` was tested, and the cytotoxicity call was “inactive”.
For `CC(C)(O/N=C(\C(=O)N[C@@H]1C(=O)N2C(C(=O)O)=C(C[n+]3ccccc3)CS[C@H]12)c1csc(N)n1)C(=O)O`, the cytotoxicity call was “inactive”.
With `CC(=O)Nc1nnc(S(N)(=O)=O)s1` the cytotoxicity call was “inactive”.
For `CN(C)CC#Cc1ccc([C@@H]2[C@H](CO)N3CCCCN(C(=O)CN(C)C)C[C@@H]23)cc1`, the cytotoxicity call was “inactive”.
